Measured values as given in patent US20250340519A1, “RADIOLABELLED COMPOUND” (OXFORD UNIVERSITY INNOVATION LIMITED, priority 2018, published 2025).
Where “and” joins values, the source holds several entries; their conditions need not be identical. Equal values may be shown once. The source gives many values for each of these; only a part stands here.

How the values were obtained:
Capan-1 xenograft = test: Ex vivo biodistribution in Capan-1 xenograft bearing mice; settings: Capan-1 xenograft mice, 1 h p.i., individual animals
Description: All animal procedures were performed in accordance with the UK Animals (Scientific Procedures) Act 1986 and with local ethical committee approval. Animals were housed in IVC cages in sex-matched groups up to 5 per cage, in an artificial day-night cycle facility, with ad libitum access to food and water. Tumour xenografts or allografts were generated by subcutaneous injection of PANC-1 or Capan-1 cell suspensions in the hind flank of balb/c nu/nu animals. CaNT xenografts were generated by harvesting CaNT tumours from donor animals, and injecting a tumour homogenate subcutaneously in the flank of wild type CBA/Carl mice. Tumours were irradiated (10 Gy, 2 Gy/min) using a 300 kV X-ray device.
Dynamic PET/CT images were acquired following an intravenous bolus administration of [^18F]-olaparib. Biodistribution studies, where selected tissues were harvested, were performed 1 h post injection. Some animals were also administered an excess of cold, unlabelled olaparib for evaluating the specificity of tumour uptake. EF5, a hypoxia-selective marker, was injected 2 h before culling of the animal. Digital autoradiography was performed on tumour sections. Image analysis was performed using PMOD.
Cells were harvested using trypsin, washed twice using PBS, and reconstituted in DMEM. Panc-1 or Capan-1 xenograft tumours were established in the right hind flank of female NOD/SCID mice (Charles River, UK) by subcutaneous injection of 1×10^6 cells in PBS:matrigel (150 μL). Tumour volumes (V) were calculated after calliper measurement using the following equation: V=(a^2×b)/2, where a is the width of the tumour and b the length (small and large diameters, respectively). The individual relative tumour volume (RTV) was defined as Vt/Vo, where Vt is the volume at a given time and Vo at the start of treatment. Animals were entered in in vivo studies when their tumour was at least 200 mm^3.
Two hours prior to PET/CT imaging, animals were exposed to X-irradiation of the tumour (10 Gy or sham) (see schedule in FIG. 13). Radiation was delivered using a Gulmay 320 kV X-irradiator; 2.0 Gy/min. Anaesthesia was maintained at 2.5% isoflurane throughout the duration of the irradiation, and animals were allowed to recover. To study the relationship of PARP1 expression, ^18F-olaparib uptake and hypoxia, animals were administered 0.6 μg in 200 μL (0.9% saline) intraperitoneally, one hour prior to PET/CT imaging. Naïve CBA/Carl mice, not bearing tumours, were not irradiated, nor was EF5 administered.
Dynamic PET/CT images were acquired using a VECTor ^4CT integrated PET/CT system. Mice were anaesthetised by 4% isoflurane gas (0.5 L/min O2) and placed on a custom-built imaging cradle in a prone position. Animals mice were intravenously injected with [^18F]-olaparib or (3-5 MBq, 8-11 GBq/μmol, through a tail vein catheter, and dynamic imaging was performed over 45-60 min after radiolabelled compound administration. PET acquisition (150 s per frame, using list mode acquisition) using an ultra-high resolution rat/mouse 1.8 mm collimator, followed by a cone-beam CT scan (55 kV, 0.19 mA) for anatomical reference and attenuation correction. Anaesthesia was maintained at 2.5% isoflurane throughout the duration of the image acquisition. PET images were reconstructed using U-SPECT-Rec3.22 software (MILabs, Utrecht, The Netherlands), applying a pixel-based algorithm with 8 subsets, 6 iterations and 0.8 mm voxel size for ^18F (energy window settings 477.9-584.1 keV).
After PET/CT image acquisition, animals were euthanized by cervical dislocation and selected organs, tissues and blood were removed. The amount of radioactivity in each organ was measured using a 2480 WIZARD^2 gamma counter (PerkinElmer). Counts per minute were converted into MBq using a calibration curve generated from known standards. Values were decay-corrected to the time of injection, and the percentage of the injected dose per gram (% ID/g) of each tissue was calculated.

Panc-1 xenograft = test: Ex vivo biodistribution in Panc-1 xenograft bearing mice; settings: Panc-1 xenograft mice, 1 h p.i., individual animals

O=C(c1cc(Cc2n[nH]c(=O)c3ccccc23)ccc1[18F])N1CCN(C(=O)C2CC2)CC1 [[^18F]olaparib]
Ex vivo biodistribution Blood (Capan-1 xenograft; + IR (10 Gy)): 0.86 % ID/g and 0.43 % ID/g and 1.16 % ID/g
Ex vivo biodistribution Brain (Capan-1 xenograft; + IR (10 Gy)): 0.06 % ID/g and 0.03 % ID/g (2×)
Ex vivo biodistribution Caecum (Capan-1 xenograft; + IR (10 Gy)): 7.58 % ID/g and 4.46 % ID/g and 5.92 % ID/g
Ex vivo biodistribution Fat (Capan-1 xenograft; + IR (10 Gy)): 0.24 % ID/g and 0.13 % ID/g and 0.19 % ID/g
Ex vivo biodistribution Gallbladder (Capan-1 xenograft; + IR (10 Gy)): 68.68 % ID/g and 31.81 % ID/g and 36.90 % ID/g
Ex vivo biodistribution Heart (Capan-1 xenograft; + IR (10 Gy)): 0.92 % ID/g and 0.48 % ID/g and 0.80 % ID/g
Ex vivo biodistribution Lung (Capan-1 xenograft; + IR (10 Gy)): 0.83 % ID/g and 0.60 % ID/g and 0.85 % ID/g
Ex vivo biodistribution Tumour (Capan-1 xenograft; + IR (10 Gy)): 1.85 % ID/g and 1.70 % ID/g and 2.48 % ID/g
Ex vivo biodistribution Blood (Capan-1 xenograft; + block (excess cold olaparib)): 0.56 % ID/g and 0.25 % ID/g and 0.27 % ID/g
Ex vivo biodistribution Brain (Capan-1 xenograft; + block (excess cold olaparib)): 0.04 % ID/g and 0.03 % ID/g (2×)
Ex vivo biodistribution Caecum (Capan-1 xenograft; + block (excess cold olaparib)): 5.07 % ID/g and 9.13 % ID/g and 4.00 % ID/g
Ex vivo biodistribution Fat (Capan-1 xenograft; + block (excess cold olaparib)): 0.36 % ID/g and 0.22 % ID/g and 0.77 % ID/g
Ex vivo biodistribution Gallbladder (Capan-1 xenograft; + block (excess cold olaparib)): 88.82 % ID/g and 105.86 % ID/g and 35.11 % ID/g
Ex vivo biodistribution Heart (Capan-1 xenograft; + block (excess cold olaparib)): 1.83 % ID/g and 0.53 % ID/g and 1.62 % ID/g
Ex vivo biodistribution Lung (Capan-1 xenograft; + block (excess cold olaparib)): 1.86 % ID/g and 0.90 % ID/g and 2.04 % ID/g
Ex vivo biodistribution Skin (Capan-1 xenograft; + block (excess cold olaparib)): 0.14 % ID/g and 0.46 % ID/g
Ex vivo biodistribution Tumour (Capan-1 xenograft; + block (excess cold olaparib)): 0.69 % ID/g and 1.27 % ID/g and 1.04 % ID/g
Ex vivo biodistribution Blood (Capan-1 xenograft; tracer alone): 0.30 % ID/g and 0.23 % ID/g and 0.31 % ID/g and 0.72 % ID/g
Ex vivo biodistribution Brain (Capan-1 xenograft; tracer alone): 0.82 % ID/g and 0.03 % ID/g (2×) and 0.10 % ID/g
Ex vivo biodistribution Caecum (Capan-1 xenograft; tracer alone): 5.11 % ID/g and 4.35 % ID/g and 3.31 % ID/g and 24.11 % ID/g
Ex vivo biodistribution Fat (Capan-1 xenograft; tracer alone): 0.46 % ID/g and 0.19 % ID/g and 0.27 % ID/g and 0.69 % ID/g
Ex vivo biodistribution Gallbladder (Capan-1 xenograft; tracer alone): 81.02 % ID/g and 24.53 % ID/g and 34.02 % ID/g and 446.94 % ID/g
Ex vivo biodistribution Heart (Capan-1 xenograft; tracer alone): 1.75 % ID/g and 0.87 % ID/g and 1.81 % ID/g and 2.24 % ID/g
Ex vivo biodistribution Lung (Capan-1 xenograft; tracer alone): 2.60 % ID/g and 1.49 % ID/g and 2.66 % ID/g and 3.97 % ID/g
Ex vivo biodistribution Tumour (Capan-1 xenograft; tracer alone): 2.48 % ID/g and 3.21 % ID/g and 2.94 % ID/g and 1.73 % ID/g
Ex vivo biodistribution Blood (Panc-1 xenograft; + IR (10 Gy)): 0.63 % ID/g and 0.83 % ID/g and 1.17 % ID/g
Ex vivo biodistribution Bone (Panc-1 xenograft; + IR (10 Gy)): 9.12 % ID/g and 4.13 % ID/g and 3.81 % ID/g
Ex vivo biodistribution Fat (Panc-1 xenograft; + IR (10 Gy)): 0.66 % ID/g and 1.41 % ID/g and 0.82 % ID/g
Ex vivo biodistribution Heart (Panc-1 xenograft; + IR (10 Gy)): 3.14 % ID/g and 2.49 % ID/g and 2.88 % ID/g
Ex vivo biodistribution Lung (Panc-1 xenograft; + IR (10 Gy)): 3.94 % ID/g and 4.47 % ID/g (2×)
Ex vivo biodistribution Skin (Panc-1 xenograft; + IR (10 Gy)): 2.10 % ID/g and 2.38 % ID/g and 2.66 % ID/g
Ex vivo biodistribution Tumour (Panc-1 xenograft; + IR (10 Gy)): 6.43 % ID/g and 3.03 % ID/g and 6.59 % ID/g
Ex vivo biodistribution Blood (Panc-1 xenograft; + block (excess cold olaparib)): 2.12 % ID/g and 2.29 % ID/g and 2.51 % ID/g and 1.06 % ID/g
Ex vivo biodistribution Fat (Panc-1 xenograft; + block (excess cold olaparib)): 0.53 % ID/g and 0.62 % ID/g and 0.35 % ID/g and 0.19 % ID/g
Ex vivo biodistribution Heart (Panc-1 xenograft; + block (excess cold olaparib)): 1.98 % ID/g and 1.59 % ID/g and 1.51 % ID/g and 0.78 % ID/g
Ex vivo biodistribution Skin (Panc-1 xenograft; + block (excess cold olaparib)): 1.65 % ID/g and 1.09 % ID/g and 1.10 % ID/g and 0.66 % ID/g
Ex vivo biodistribution Tumour (Panc-1 xenograft; + block (excess cold olaparib)): 1.68 % ID/g and 0.92 % ID/g and 1.09 % ID/g (2×)
Ex vivo biodistribution Bone (Panc-1 xenograft; tracer alone): 2.71 % ID/g and 1.88 % ID/g and 1.26 % ID/g and 1.50 % ID/g
Ex vivo biodistribution Fat (Panc-1 xenograft; tracer alone): 0.97 % ID/g and 0.82 % ID/g and 0.68 % ID/g and 0.45 % ID/g and 0.44 % ID/g and 0.37 % ID/g
Ex vivo biodistribution Tumour (Panc-1 xenograft; tracer alone): 1.94 % ID/g and 4.07 % ID/g and 4.20 % ID/g and 3.27 % ID/g and 2.43 % ID/g and 3.07 % ID/g
